{"source": "patent US7750006B2", "about": "“Phthalazinone derivatives” (Kudos Pharmaceuticals Limited, priority 2000, dated 2010)", "target": "Mammalian PARP, isolated from Hela cell nuclear extract (Homo sapiens, UniProt P09874)", "sequence (P09874 whole entry)": "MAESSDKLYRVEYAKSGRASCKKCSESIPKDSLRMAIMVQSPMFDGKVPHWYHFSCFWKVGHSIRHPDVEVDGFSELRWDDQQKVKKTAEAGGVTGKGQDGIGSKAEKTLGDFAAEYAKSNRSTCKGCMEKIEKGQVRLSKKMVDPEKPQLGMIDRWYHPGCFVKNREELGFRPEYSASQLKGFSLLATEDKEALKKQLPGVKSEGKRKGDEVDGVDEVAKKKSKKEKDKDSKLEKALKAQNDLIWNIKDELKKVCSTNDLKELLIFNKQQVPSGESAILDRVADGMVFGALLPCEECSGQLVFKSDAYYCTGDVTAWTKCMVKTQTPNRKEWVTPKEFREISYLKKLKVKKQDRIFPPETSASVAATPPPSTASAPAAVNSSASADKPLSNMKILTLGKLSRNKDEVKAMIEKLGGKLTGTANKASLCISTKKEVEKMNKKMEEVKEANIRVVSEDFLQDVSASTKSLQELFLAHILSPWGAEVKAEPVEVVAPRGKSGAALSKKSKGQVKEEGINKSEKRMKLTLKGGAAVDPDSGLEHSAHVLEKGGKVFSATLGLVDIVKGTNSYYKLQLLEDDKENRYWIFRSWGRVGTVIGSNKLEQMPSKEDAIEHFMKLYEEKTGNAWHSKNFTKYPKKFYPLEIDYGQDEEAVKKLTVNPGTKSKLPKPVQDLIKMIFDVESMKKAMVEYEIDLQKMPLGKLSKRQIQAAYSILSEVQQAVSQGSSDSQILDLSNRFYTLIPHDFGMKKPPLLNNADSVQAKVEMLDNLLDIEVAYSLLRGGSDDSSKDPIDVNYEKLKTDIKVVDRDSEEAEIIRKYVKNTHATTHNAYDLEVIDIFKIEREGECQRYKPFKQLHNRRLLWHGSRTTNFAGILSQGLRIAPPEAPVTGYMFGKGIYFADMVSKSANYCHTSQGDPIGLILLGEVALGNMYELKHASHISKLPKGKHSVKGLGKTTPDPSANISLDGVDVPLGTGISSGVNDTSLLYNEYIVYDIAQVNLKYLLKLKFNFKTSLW", "assay": "PARP inhibition assay (FlashPlate, 3H-NAD) to determine IC50", "format": "biochemical", "settings": "PARP enzyme activity, NAD 5 μM, 30 mer ds DNA-oligos, 30° C., 45 minutes, compound 10 to 0.01 μM", "experimental": "In order to assess the inhibitory action of the compounds, the following assay was used to determine IC50 values.\nThe total assay volume per well was 40 μl.\nAfter 10 minutes incubation at 30° C. the reactions were initiated by the addition of a 10 μl reaction mixture, containing NAD (5 μM), ^3H-NAD and 30 mer double stranded DNA-oligos. Designated positive and negative reaction wells were done in combination with compound wells (unknowns) in order to calculate % enzyme activities. The plates were then shaken for 2 minutes and incubated at 30° C. for 45 minutes.\nFollowing the incubation, the reactions were quenched by the addition of 50 μl 30% acetic acid to each well. The plates were then shaken for 1 hour at room temperature.\nThe plates were transferred to a TopCount NXT (TRADE MARK) (Packard, UK) for scintillation counting. Values recorded are counts per minute (cpm) following a 30 second counting of each well.\nThe % enzyme activity for each compound is then calculated using the following equation: […]\nSuch IC50 values are used as comparative values to identify increased compound potencies."}
{"smiles": "O=c1[nH]nc(CSc2ccc(Cl)cc2)c2ccccc12", "note": "[Compound 90]", "values": [{"measurement": "IC50", "result": 900, "unit": "nM"}]}
{"smiles": "O=c1[nH]nc(CSc2ccccn2)c2ccccc12", "note": "[Compound 91]", "values": [{"measurement": "IC50", "result": 3300, "unit": "nM"}]}
{"smiles": "Cn1ccnc1SCc1n[nH]c(=O)c2ccccc12", "note": "[Compound 92]", "values": [{"measurement": "IC50", "result": 1300, "unit": "nM"}]}
{"smiles": "COC(=O)CSCc1n[nH]c(=O)c2ccccc12", "note": "[Compound 93]", "values": [{"measurement": "IC50", "result": 2100, "unit": "nM"}]}
{"smiles": "O=c1[nH]nc(Cc2ccc(Cl)cc2)c2ccccc12", "note": "[Compound 126]", "values": [{"measurement": "IC50", "result": 1800, "unit": "nM"}]}
{"smiles": "O=c1[nH]nc(Cc2ccc(Br)cc2)c2ccccc12", "note": "[Compound 129]", "values": [{"measurement": "IC50", "result": 1600, "unit": "nM"}]}
{"smiles": "O=c1[nH]nc(Cc2cccc3ccccc23)c2ccccc12", "note": "[Compound 131]", "values": [{"measurement": "IC50", "result": 4400, "unit": "nM"}]}
{"smiles": "O=c1[nH]nc(Cc2ccc(F)cc2)c2ccccc12", "note": "[Compound 132]", "values": [{"measurement": "IC50", "result": 700, "unit": "nM"}]}
{"smiles": "COc1ccc(Cc2n[nH]c(=O)c3ccccc23)cc1", "note": "[Compound 138]", "values": [{"measurement": "IC50", "result": 1200, "unit": "nM"}]}
{"smiles": "Cc1ccc(Cc2n[nH]c(=O)c3ccccc23)cc1", "note": "[Compound 139]", "values": [{"measurement": "IC50", "result": 1700, "unit": "nM"}]}
{"smiles": "O=c1[nH]nc(Cc2ccccc2F)c2ccccc12", "note": "[Compound 141]", "values": [{"measurement": "IC50", "result": 1400, "unit": "nM"}]}
{"smiles": "O=c1[nH]nc(Cc2ccccc2)c2ccccc12", "note": "[Compound 145]", "values": [{"measurement": "IC50", "result": 800, "unit": "nM"}]}
{"smiles": "O=c1[nH]nc(Cc2ccc(I)cc2)c2ccccc12", "note": "[Compound 151]", "values": [{"measurement": "IC50", "result": 1800, "unit": "nM"}]}
{"smiles": "Nc1ccc(Cc2n[nH]c(=O)c3ccccc23)cc1", "note": "[Compound 159]", "values": [{"measurement": "IC50", "result": 3500, "unit": "nM"}]}
{"smiles": "Nc1cccc(Cc2n[nH]c(=O)c3ccccc23)c1", "note": "[Compound 160]", "values": [{"measurement": "IC50", "result": 1300, "unit": "nM"}]}
{"smiles": "Cc1ccccc1Cc1n[nH]c(=O)c2ccccc12", "note": "[Compound 163]", "values": [{"measurement": "IC50", "result": 1800, "unit": "nM"}]}
{"smiles": "O=c1[nH]nc(Cc2ccc(O)cc2)c2ccccc12", "note": "[Compound 164]", "values": [{"measurement": "IC50", "result": 1800, "unit": "nM"}]}
{"smiles": "O=c1[nH]nc(Cc2cccc(O)c2)c2ccccc12", "note": "[Compound 165]", "values": [{"measurement": "IC50", "result": 300, "unit": "nM"}]}
{"smiles": "CC(=O)Nc1ccc(Cc2n[nH]c(=O)c3ccccc23)cc1", "note": "[Compound 166]", "values": [{"measurement": "IC50", "result": 4100, "unit": "nM"}]}
{"smiles": "O=C(Nc1ccc(Cc2n[nH]c(=O)c3ccccc23)cc1)c1ccccc1", "note": "[Compound 167]", "values": [{"measurement": "IC50", "result": 1600, "unit": "nM"}]}
{"smiles": "O=C(Nc1cccc(Cc2n[nH]c(=O)c3ccccc23)c1)c1cccs1", "note": "[Compound 169]", "values": [{"measurement": "IC50", "result": 600, "unit": "nM"}]}
{"smiles": "O=C(Nc1cccc(Cc2n[nH]c(=O)c3ccccc23)c1)c1ccc(F)cc1", "note": "[Compound 170]", "values": [{"measurement": "IC50", "result": 400, "unit": "nM"}]}
{"smiles": "O=C(Nc1cccc(Cc2n[nH]c(=O)c3ccccc23)c1)c1ccccc1", "note": "[Compound 171]", "values": [{"measurement": "IC50", "result": 600, "unit": "nM"}]}
{"smiles": "O=c1[nH]nc(Cc2ccncc2)c2ccccc12", "note": "[Compound 177]", "values": [{"measurement": "IC50", "result": 800, "unit": "nM"}]}
{"smiles": "O=c1[nH]nc(Cc2cccnc2)c2ccccc12", "note": "[Compound 178]", "values": [{"measurement": "IC50", "result": 200, "unit": "nM"}]}
{"smiles": "CC(=O)Oc1cccc(Cc2n[nH]c(=O)c3ccccc23)c1", "note": "[Compound 179]", "values": [{"measurement": "IC50", "result": 40, "unit": "nM"}]}
{"smiles": "O=c1[nH]nc(Cc2ccc3c(c2)OCO3)c2ccccc12", "note": "[Compound 180]", "values": [{"measurement": "IC50", "result": 1300, "unit": "nM"}]}
{"smiles": "O=c1[nH]nc(Cc2cccc(Cl)c2)c2ccccc12", "note": "[Compound 186]", "values": [{"measurement": "IC50", "result": 1100, "unit": "nM"}]}
{"smiles": "O=c1[nH]nc(Cc2cccc(C(F)(F)F)c2)c2ccccc12", "note": "[Compound 191]", "values": [{"measurement": "IC50", "result": 1300, "unit": "nM"}]}
{"smiles": "O=c1[nH]nc(Cc2cccc(F)c2)c2ccccc12", "note": "[Compound 192]", "values": [{"measurement": "IC50", "result": 1400, "unit": "nM"}]}
{"smiles": "O=c1[nH]nc(Cc2cccc(Oc3ccccc3)c2)c2ccccc12", "note": "[Compound 193]", "values": [{"measurement": "IC50", "result": 1000, "unit": "nM"}]}
{"smiles": "O=c1[nH]nc(Cc2cccc(OCc3ccccc3)c2)c2ccccc12", "note": "[Compound 194]", "values": [{"measurement": "IC50", "result": 1400, "unit": "nM"}]}
{"smiles": "Nc1cc(Cc2n[nH]c(=O)c3ccccc23)ccc1N1CCSCC1", "note": "[Compound 198]", "values": [{"measurement": "IC50", "result": 3800, "unit": "nM"}]}
{"smiles": "O=c1[nH]nc(Cc2ccc(F)c(F)c2)c2ccccc12", "note": "[Compound 202]", "values": [{"measurement": "IC50", "result": 70, "unit": "nM"}]}
{"smiles": "O=c1[nH]nc(Cc2ccc(N3CCCC3)c([N+](=O)[O-])c2)c2ccccc12", "note": "[Compound 204]", "values": [{"measurement": "IC50", "result": 700, "unit": "nM"}]}
{"smiles": "O=C(O)COCC(=O)Nc1cc(Cc2n[nH]c(=O)c3ccccc23)ccc1N1CCOCC1", "note": "[Compound 206]", "values": [{"measurement": "IC50", "result": 1200, "unit": "nM"}]}
{"smiles": "O=c1[nH]nc(Cc2cccc(Br)c2)c2ccccc12", "note": "[Compound 211]", "values": [{"measurement": "IC50", "result": 400, "unit": "nM"}]}
{"smiles": "O=C(Oc1cccc(Cc2n[nH]c(=O)c3ccccc23)c1)c1ccc(F)cc1", "note": "[Compound 212]", "values": [{"measurement": "IC50", "result": 900, "unit": "nM"}]}
{"smiles": "CC(=O)Oc1ccc(Cc2n[nH]c(=O)c3ccccc23)cc1", "note": "[Compound 213]", "values": [{"measurement": "IC50", "result": 4400, "unit": "nM"}]}
{"smiles": "O=C(Nc1ccccc1)Nc1cccc(Cc2n[nH]c(=O)c3ccccc23)c1", "note": "[Compound 215]", "values": [{"measurement": "IC50", "result": 4000, "unit": "nM"}]}
{"smiles": "O=C(Nc1ccc(F)cc1)Nc1cccc(Cc2n[nH]c(=O)c3ccccc23)c1", "note": "[Compound 216]", "values": [{"measurement": "IC50", "result": 300, "unit": "nM"}]}
{"smiles": "COc1cc(Cc2n[nH]c(=O)c3ccccc23)ccc1OCc1ccccc1", "note": "[Compound 222]", "values": [{"measurement": "IC50", "result": 2200, "unit": "nM"}]}
{"smiles": "O=C(Nc1ccc(Cc2n[nH]c(=O)c3ccccc23)cc1)c1ccc(F)cc1", "note": "[Compound 227]", "values": [{"measurement": "IC50", "result": 400, "unit": "nM"}]}
{"smiles": "COc1cc(Cc2n[nH]c(=O)c3ccccc23)ccc1O", "note": "[Compound 239]", "values": [{"measurement": "IC50", "result": 600, "unit": "nM"}]}
{"smiles": "COc1cc(Cc2n[nH]c(=O)c3ccccc23)ccc1F", "note": "[Compound 241]", "values": [{"measurement": "IC50", "result": 900, "unit": "nM"}]}
{"smiles": "O=c1[nH]nc(Cc2ccc(F)c(O)c2)c2ccccc12", "note": "[Compound 247]", "values": [{"measurement": "IC50", "result": 500, "unit": "nM"}]}
{"smiles": "O=c1[nH]nc(Cc2ccccc2F)c2ccccc12", "note": "[Compound 248]", "values": [{"measurement": "IC50", "result": 1000, "unit": "nM"}]}
{"smiles": "O=c1[nH]nc(Cc2ccccn2)c2ccccc12", "note": "[Compound 249]", "values": [{"measurement": "IC50", "result": 700, "unit": "nM"}]}
{"smiles": "O=C(Nc1cc(Cc2n[nH]c(=O)c3ccccc23)ccc1N1CCOCC1)c1cccc(CN2CCOCC2)c1", "note": "[Compound 253]", "values": [{"measurement": "IC50", "result": "≤ 3000", "unit": "nM"}]}
{"smiles": "O=C(Nc1cc(Cc2n[nH]c(=O)c3ccccc23)ccc1N1CCOCC1)c1cccc(CN2CCCC2)c1", "note": "[Compound 254]", "values": [{"measurement": "IC50", "result": "≤ 3000", "unit": "nM"}]}
{"smiles": "O=C(CCCCl)Nc1cc(Cc2n[nH]c(=O)c3ccccc23)ccc1N1CCOCC1", "note": "[Compound 265, 4-chloro-N-[2-morpholino-5-(1-oxophthalazin-4-ylmethyl)phenyl]butyramide]", "values": [{"measurement": "IC50", "result": "≤ 3000", "unit": "nM"}]}
{"smiles": "O=C(O)c1cccc(Cc2n[nH]c(=O)c3ccccc23)c1", "note": "[Compound 276]", "values": [{"measurement": "IC50", "result": 2500, "unit": "nM"}]}
{"smiles": "COC(=O)c1cccc(Cc2n[nH]c(=O)c3ccccc23)c1", "note": "[Compound 277]", "values": [{"measurement": "IC50", "result": 600, "unit": "nM"}]}
